About 2,200 (0.71%) of roughly 310,000 compounds showed an effect of 50% or more. Effects have a minus sign here. The list shows a part of the results.
Each compound was assayed against human ether-à-go-go-related gene (hERG) potassium channel (human, UniProt Q12809) (assay: primary screen, population patch clamp on CHO cells stably expressing hERG).
human ether-à-go-go-related gene (hERG) potassium channel, sequence (Q12809 whole entry, looked up): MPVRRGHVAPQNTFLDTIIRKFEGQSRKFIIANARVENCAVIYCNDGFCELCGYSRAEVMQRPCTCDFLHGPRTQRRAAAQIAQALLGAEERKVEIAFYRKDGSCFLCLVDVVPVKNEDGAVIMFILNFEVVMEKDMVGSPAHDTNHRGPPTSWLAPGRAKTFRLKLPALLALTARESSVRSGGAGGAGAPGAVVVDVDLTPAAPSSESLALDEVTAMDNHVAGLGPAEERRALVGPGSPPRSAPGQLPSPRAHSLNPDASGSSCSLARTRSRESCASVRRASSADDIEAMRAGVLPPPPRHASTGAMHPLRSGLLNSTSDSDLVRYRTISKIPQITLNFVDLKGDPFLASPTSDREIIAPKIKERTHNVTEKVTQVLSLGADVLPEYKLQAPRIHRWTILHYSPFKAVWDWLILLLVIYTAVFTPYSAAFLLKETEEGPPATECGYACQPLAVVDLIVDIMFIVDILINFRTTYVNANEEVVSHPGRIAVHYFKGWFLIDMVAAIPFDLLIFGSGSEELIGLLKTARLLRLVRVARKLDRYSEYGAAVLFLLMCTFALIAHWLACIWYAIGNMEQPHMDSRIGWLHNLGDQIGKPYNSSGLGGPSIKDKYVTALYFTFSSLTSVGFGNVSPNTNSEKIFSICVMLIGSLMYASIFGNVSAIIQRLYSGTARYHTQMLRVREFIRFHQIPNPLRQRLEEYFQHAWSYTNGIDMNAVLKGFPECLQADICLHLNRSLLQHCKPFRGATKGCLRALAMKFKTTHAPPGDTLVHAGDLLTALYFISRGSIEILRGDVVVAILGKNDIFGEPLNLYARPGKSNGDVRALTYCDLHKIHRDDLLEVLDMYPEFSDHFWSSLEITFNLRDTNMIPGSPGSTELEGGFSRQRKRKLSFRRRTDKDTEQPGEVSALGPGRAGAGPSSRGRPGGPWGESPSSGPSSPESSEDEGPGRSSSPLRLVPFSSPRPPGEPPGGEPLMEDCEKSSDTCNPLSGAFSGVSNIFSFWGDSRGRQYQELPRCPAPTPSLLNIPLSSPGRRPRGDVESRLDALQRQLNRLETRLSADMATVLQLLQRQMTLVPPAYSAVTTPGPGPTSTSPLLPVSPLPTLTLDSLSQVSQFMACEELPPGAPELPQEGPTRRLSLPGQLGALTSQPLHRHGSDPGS

SMILES | hERG current change (%, negative = inhibition) at 1uM [%]
N#Cc1ccc(NC(=O)Nc2ccc(Cl)cc2)cc1 | 7.36
CCNC(=O)c1cc(Cl)ccc1OC | 3.4
S=C(NCCCN1CCOCC1)N1CCN(c2nc(-c3ccc(Cl)cc3)cs2)CC1 | -2.41
Cc1ccc(/C=C(\C#N)C(=O)NCc2ccco2)o1 | 4.56
CCOc1ccc(N2CC(C(=O)Nc3ccccc3C(=O)N3CCOCC3)CC2=O)cc1 (centres unmarked) | 14.7
Cl.Clc1ccc(CNCCC2=CCCCC2)cc1 | -8.61
CCN1CCN(C(=O)C2CCC(CNS(=O)(=O)c3ccc(NC(C)=O)cc3)CC2)CC1 (centres unmarked) | 12.6
O=S(=O)(c1cccs1)N1CCN(CCc2ccccc2)CC1 | 20.8
CC(C)C(=O)Nc1cccc(NC(=O)c2cccc(Br)c2)c1 | -3.1
COc1ccc(OC)c(C2=NOC(C(=O)NCc3ccco3)C2)c1 (centres unmarked) | 15.6
COc1cc2c(cc1OC)C(c1ccccc1)N(C(=O)CCl)CC2 (centres unmarked) | 16.3
O=C(O)C1CCC(NSc2ccccc2[N+](=O)[O-])CC1 (centres unmarked) | 8.17
Cn1c2ccccc2c2ncn(Cc3ccc(F)cc3)c(=O)c21 | 10.1
CCCCOP(=O)(c1ccc(N(C)C)cc1)C(O)c1ccccc1F (centres unmarked) | 2.82
COc1ccc(S(=O)(=O)N2CCC(C(=O)NCCC(=O)Nc3cccc(OC)c3)CC2)cc1 | 9.47
CN(C)Cc1ccccc1Sc1ccc(Br)cc1 | 3.69
CCCc1n[nH]c2c1C(=O)C(C(=O)OC)C(C)(C)C2 (centres unmarked) | 5.57
Cc1ccc(OCC(=O)NCCC2=CCCCC2)cc1 | 0.8
O=C(COCC(=O)N/N=C/c1ccccc1F)N/N=C/c1ccccc1F | -31.5
CCn1cc(C(c2ccccc2)C(C(C)=O)[N+](=O)[O-])c2ccccc21 (centres unmarked) | 9.37
OC(COc1ccccc1)CN1CCN(C(c2ccccc2)c2ccccc2)CC1 (centres unmarked) | -24.1
COc1ccc(C(=O)N(C)Cc2ccc(C)o2)cc1OC1CCN(C(C)C)CC1 | 9.04
CC(C(=O)O)n1c2ccccc2c2cnn(C)c(=O)c21 (centres unmarked) | 7.3

SMILES | hERG current change (%, negative = inhibition) at 1uM [%]
Cc1cc(OCC(=O)N2CCC(C(N)=O)CC2)c2c(C)cc(=O)oc2c1 | 11.6
Cc1ccc(NC(=O)c2cc(S(=O)(=O)N(C)C)ccc2N2CCCC2)cc1F | 7.97
CC(SC1CCCC1)C(=O)Nc1ccnn1C(C)C (centres unmarked) | 7.28
CC(=O)Nc1ccc(S(=O)(=O)NNC(=O)COc2cccc(C)c2)cc1 | 15.7
Cc1cc2oc(C(=O)N(Cc3cccs3)C3CCS(=O)(=O)C3)cc(=O)c2cc1Cl (centres unmarked) | 5.61
COc1ccc(CCNC(=O)c2c(C)nn(-c3ccccc3)c2Cl)cc1 | 5.45
CCCCCCC1CC(C)(/C(C)=N/NC(N)=O)OC1=O (centres unmarked) | -18.1
CCNC(=O)CSc1ncnc2sccc12 | 1.77
O=C(Cn1cc(C(F)(F)F)ccc1=O)Nc1cccc(S(=O)(=O)N2CCOCC2)c1 | 0.507
COc1ccc(-c2csc(N(CCCN(C)C)C(=O)c3ccc(F)cc3)n2)cc1.Cl | -7.25
COc1ccc(CN(CC(=O)NCc2ccccc2)C(=O)CCC(=O)Nc2ccccn2)cc1 | -14.2
Cc1cccc(-c2ccc3ncnc(NCc4cccnc4)c3c2)c1 | 4.75
O=C(CN1CCN(S(=O)(=O)N2CCCCC2)CC1)Nc1cc(Cl)ccc1Cl | 12.5
Cc1ccc(-n2nnnc2SCC(=O)NNC(=O)c2ccc([N+](=O)[O-])cc2)cc1 | 11.1
COc1cccc(C(C)NC(=O)C2CCCO2)c1 (centres unmarked) | 11.5
O=C(NCCC1=CCCCC1)C1CCC(=O)N(Cc2ccc(Cl)cc2)C1 (centres unmarked) | 13.2
NC(=O)CCC(=O)N1CCCC(C(=O)c2ccc(C(F)(F)F)cc2)C1 (centres unmarked) | 5.3
CCC(CC)c1nnc(NC(=O)CN2C(=O)NC3(CCCC3)C2=O)s1 | 9.54
OCC1(Cc2ccc(Cl)cc2)CCN(CC2CC=CCC2)CC1 (centres unmarked) | -41.6
N#CC1=C(N)Oc2cc(N)ccc2C1C1CC=CCC1 (centres unmarked) | -5.53
COc1cc(C#Cc2ccc3cc(CCCO)oc(=O)c3c2)cc(OC)c1 | 11
O=C(c1ccc(N2CCN(C(=O)c3ccccc3)CC2)cc1)c1cccc(F)c1 | -18.3
CC(C)Oc1ccc(Cn2c(=O)oc3ccccc32)cc1 | 14.6

SMILES | hERG current change (%, negative = inhibition) at 1uM [%]
Cc1ccc(C(=O)Nc2ccccc2C(=O)N2CC3(C)CC2CC(C)(C)C3)cc1 (centres unmarked) | 16
Cc1ccc(Oc2nc3ccccn3c(=O)c2/C=C(\C#N)C(=O)NC2CCS(=O)(=O)C2)cc1 (centres unmarked) | 11.3
O=C(NNc1nc2cc3c(cc2s1)OCO3)c1ccccc1 | 13.3
COc1ccc(/C=C/C(=O)c2c(O)n(CCC3=CCCCC3)c(=O)[nH]c2=O)cc1 | 10.8
Cn1c2c(c(=O)n(C)c1=O)C(CC(=O)Nc1ccccc1)C(=O)N2 (centres unmarked) | 3.9
COc1ccc2cc(-c3ccsc3)ncc2c1 | 12.2
COc1cccc(/C=N/NC(=O)c2ccoc2C)c1O | 4.73
O=C(COC(=O)c1cncc(Br)c1)NC1CC1 | 3.48
Cc1cc(C)c(S(=O)(=O)N(C)CC(=O)NCCCn2ccnc2)c(C)c1 | -4.47
CCc1nn(CC(=O)NCCCN(C)Cc2ccccc2)c(=O)c2cc3sc(C)cc3n12 | -47
Cc1ccccc1OCC(O)CN1CCC(C)CC1.Cl (centres unmarked) | -6.73
C/C(CCc1ccc2c(c1)OCO2)=N\NC(=S)NC(C)C | -33.9
CN(C)CCNC(=O)C1(O)c2cc(Br)ccc2NC(=O)N1c1ccc(Cl)cc1 (centres unmarked) | 15.2
O=C1CCC([N+](=O)[O-])C(c2ccccc2C(F)(F)F)N1 (centres unmarked) | 12.7
Cc1nc2ncnn2c(C)c1CCC(=O)NCc1ccc2c(c1)OCO2 | -13.5
Cc1ccc(OCC(=O)c2cc(C)c(C)cc2C)c([N+](=O)[O-])n1 | 10.5
Cc1ccnc(N(C(=O)Nc2ccccc2)C2=NCC(C)(C)S2)c1 | 9.87
CCN1C(=O)C(CC(=O)Nc2ccc(OC)cc2)N(Cc2cccnc2)C1=S (centres unmarked) | -11.1
COc1cccc(C(=O)Nc2ccc3c(c2)OCO3)c1OC | 9.88
Cc1ccc(NC(=O)C2CCCN2C(=O)NC2CCCCC2)cc1 (centres unmarked) | 0.103
Cc1cc(C(=O)NCC(=O)O)c(C)o1 | 10.7
Cc1ccccc1-c1nnn(CC(=O)N(C)CC(=O)Nc2ccccc2C(F)(F)F)n1 | 1.4
CC(C)(C)P(=O)(CO)c1ccccc1 (centres unmarked) | 2.82

SMILES | hERG current change (%, negative = inhibition) at 1uM [%]
CCOc1ccccc1NC(=O)COC(=O)CNS(=O)(=O)c1ccc(C)cc1 | 17
O=C(Cn1c(=O)n(CC(=O)NCc2ccccc2)c2ccccc21)NCc1ccccc1 | 15.6
O=C1CCC(=O)N1CNc1cccnc1 | -7.39
Cc1ncc(CO)c(CO)c1O.Cl | 9.35
CCOc1ccccc1C(=O)NCC(=O)NCC(C)(C)N1CCOCC1 | 2.8
Fc1ccc(CSc2nc3ncccc3[nH]2)cc1 | 1.68
Cc1cccc(-c2nc3ccccc3c(=O)n2NC(=O)c2cccnc2Cl)c1 | 15.2
CCCN1CCN(C(=O)c2cc(COc3ccc4ncccc4c3)on2)CC1 | 7.75
CS(=O)(=O)NCCNc1ncc(C(F)(F)F)cc1Cl | 24.8
O=S(=O)(/N=C(/Nc1cc(N2CCOCC2)ncn1)c1ccccc1)c1ccccc1 | -6.74
Cc1cccc(N(CC(=O)NCc2ccco2)C(=O)CCC(=O)Nc2ccccn2)c1C | 5.36
Cc1nnc(SCc2ccc(F)cc2)n1NC/C=C/c1ccccc1 | -0.0029
COc1ccc(-c2cc(C(F)(F)F)n3nc(C(=O)N4CCC5(CC4)OCCO5)cc3n2)cc1OC | -3.01
CC(C)=C(NC(=O)c1ccccc1)C(=O)Nc1cccc(C)c1 | 9.53
Cc1cccc(NC(=O)c2ccc(C3SCC(=O)N3CCc3ccccc3)cc2)c1 (centres unmarked) | 10.1
O=C(Nc1nccs1)c1ccc(Br)c(S(=O)(=O)N2CCCC2)c1 | 11.3
O=C(CNC(=O)c1ccccc1F)NCCCN1CCCC1=O | 3.21
Cc1onc(-c2ccccc2)c1-c1csc(N/N=C/c2ccccc2)n1 | 10.3
Nc1nccc(/C=C/c2ccc(Cl)cc2)n1 | 11.7
CCc1c(C)nc2c(OC)cccc2c1SCCC(=O)O | 4.9
Cc1cc2nc(/C=C/c3cccnc3)[nH]c2cc1C | 11.8
Cc1c(C(=O)O)sc2nc3n(c(=O)c12)CCCCC3 | 10.8
COc1cccc(C(=O)O[C@@H]2[C@H](Cc3ccccc3)NS(=O)(=O)[C@H]3C[C@@H]4C=C[C@]23O4)c1 | 10.9

Source: PMC4336329 (PLoS ONE, 2015)
